# ± gives the standard deviation of the averaged measurements. The full ranking holds about 33,000 sequences; the median of “E-score (dimensionless, -0.5 to 0.5)” is about -0.046, and the highest 2% start at about 0.36. This is one part of the list.
# Tested on: T1, SpTbr T-box DNA-binding domain (GST fusion)
# T1 sequence: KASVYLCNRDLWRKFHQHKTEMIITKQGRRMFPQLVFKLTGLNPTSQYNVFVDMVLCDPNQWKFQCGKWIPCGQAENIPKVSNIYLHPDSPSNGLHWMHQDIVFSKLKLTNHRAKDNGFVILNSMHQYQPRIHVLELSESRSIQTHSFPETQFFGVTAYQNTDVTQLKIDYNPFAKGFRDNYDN
# Assay: PBM E-score of 8-mer (E-score (dimensionless, -0.5 to 0.5)); Tbr is Tbrain of the sea star Patiria miniata (Pm) or the sea urchin Strongylocentrotus purpuratus (Sp); higher = stronger binding preference; most listed sequences are background and not binding sites
# Conditions: the construct has about 5 more residues each side
# In short: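 Expression of GST-fused Tbr T-box DNA-binding domains, each holding the full T-box plus roughly five flanking residues, was carried out in BL21 E. coli at 20 °C, with purification by glutathione affinity chromatography. Universal Agilent arrays made double-stranded by primer extension were incubated with the protein at 200 nM in PBS (pH 7.5), then scanned and quantified. All ungapped 8-mers were scored from probe intensities, and each received an enrichment E-score from the Universal PBM Analysis Suite, averaged over duplicate arrays.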
row,Sequence,PBM E-score of 8-mer
1,CATGGTAG,-0.228 ± 0.037
2,CAGCGGGG,0.0563 ± 0.014
3,GACTGAGC,-0.159 ± 0.068
4,CATCATAC,-0.133 ± 0.0042
5,ATTATCGA,-0.0078 ± 0.054
6,GGGGTCGA,-0.0352 ± 0.02
7,ATATCGAG,-0.13 ± 0.048
8,ACGAAGCA,-0.138 ± 0.0035
9,AATGCTCT,-0.22 ± 0.0091
10,CCCTCCTA,-0.0828 ± 0.05
11,GCAAATAC,-0.144 ± 0.014
12,GATGGAAC,-0.0289 ± 0.024
13,GCCTAGTA,-0.0767 ± 0.077
14,AGAGTTAC,-0.223 ± 0.011
15,CATTATAA,-0.0424 ± 0.007
16,AATGTTTG,-0.0831 ± 0.06
17,AAGCATAG,-0.335 ± 0.015
18,ACAGTTGG,0.115 ± 0.033
19,CAATATTG,-0.0373 ± 0.099
20,AGATTCAA,-0.109 ± 0.067
21,AATTGTCA,0.304 ± 0.024
22,CGGGGCCC,-0.161 ± 0.022
23,TAGACAGA,-0.0941 ± 0.02
24,ACCGATTG,0.107 ± 0.057
25,AACATGCT,-0.138 ± 0.022

row,Sequence,PBM E-score of 8-mer
1,GTAACGAA,-0.103 ± 0.016
2,CCCATACG,-0.12 ± 0.0094
3,CGTATGCA,-0.118 ± 0.13
4,CAGCCAGA,-0.0717 ± 0.0031
5,GAAAGCTC,-0.00944 ± 0.024
6,AAAAGAGT,-0.166 ± 0.035
7,AGAGAGGC,-0.0778 ± 0.063
8,GAGGGTCA,-0.0628 ± 0.053
9,GTACATGA,-0.0397 ± 0.031
10,CTGGCATA,0.0157 ± 0.043
11,TCTAGTCA,-0.149 ± 0.043
12,CACCACGC,0.131 ± 0.015
13,CAACGAGG,-0.0693 ± 0.0018
14,CATAAGCC,-0.192 ± 0.047
15,CCGCGGTA,-0.167 ± 0.022
16,CAACGAGA,-0.0903 ± 0.04
17,GCTCTTAC,-0.264 ± 0.04
18,TGCTCAAA,0.017 ± 0.039
19,AAGCCACT,-0.0439 ± 0.018
20,ACCCCTCC,0.128 ± 0.0024
21,ACGAGACT,-0.054 ± 0.066
22,CTAGCAAA,0.0704 ± 0.029
23,AAGGAGAT,-0.0983 ± 0.019
24,ACCCTACA,-0.0616 ± 0.0058
25,CCGCAGGC,-0.0492 ± 0.029

row,Sequence,PBM E-score of 8-mer
1,CATTCGAC,-0.136 ± 0.026
2,AAGCAGAA,-0.0601 ± 0.054
3,AATTGGGC,-0.197 ± 0.043
4,CCTAGTGC,0.0674 ± 0.05
5,AGACAGTA,0.0382 ± 0.012
6,AGGGGTAG,0.0405 ± 0.049
7,GATTTTCA,-0.137 ± 0.0079
8,GAAAGCTA,0.0619 ± 0.019
9,AACGTCTG,-0.221 ± 0.082
10,AATATCAT,-0.161 ± 0.0081
11,ACTCAACT,-0.0287 ± 0.011
12,TCCACAAA,0.0699 ± 0.025
13,AATCCTAA,-0.221 ± 0.074
14,ACGATTTA,0.00131 ± 0.068
15,GGAATCCA,-0.107 ± 0.021
16,GGTAACGA,0.111 ± 0.056
17,ACGTATGA,0.0677 ± 0.042
18,CTACGGCC,-0.3097 ± 0.0024
19,CGTTCCCC,-0.0603 ± 0.012
20,TGAATGCA,-0.1842 ± 0.00048
21,CGGGGCAC,-0.237 ± 0.038
22,CCGGAATC,-0.213 ± 0.029
23,CACCCACA,0.324 ± 0.021
24,CCACGGGA,-0.1125 ± 0.00013
25,GATTATCC,-0.106 ± 0.0078

row,Sequence,PBM E-score of 8-mer
1,AGGTACAC,-0.217 ± 0.066
2,TAGACCCA,-0.101 ± 0.067
3,AGGAAGGG,-0.219 ± 0.044
4,CTCTAGCA,0.129 ± 0.066
5,AATCTTGG,-0.244 ± 0.014
6,CGGCCGTA,-0.207 ± 0.021
7,ACTGTAGC,-0.069 ± 0.049
8,AAAAAAAA,0.103 ± 0.05
9,CCGCCAGG,-0.168 ± 0.12
10,CAGTGAGC,-0.0103 ± 0.11
11,TCCTCCCA,-0.194 ± 0.047
12,ATGGTACA,-0.17 ± 0.062
13,AGGGGTTG,-0.0856 ± 0.05
14,TGCGACAA,0.271 ± 0.022
15,GAAGAAGC,-0.0322 ± 0.014
16,ACCCGAAC,-0.0199 ± 0.021
17,CGCCCCCA,-0.0639 ± 0.047
18,GCTACTAA,0.0806 ± 0.056
19,ATAGCATA,0.0174 ± 0.034
20,GCCGGGGA,-0.173 ± 0.018
21,GGAGCCAA,0.0118 ± 0.093
22,AACGCGGA,0.0514 ± 0.021
23,ATTAGGGG,-0.226 ± 0.009
24,CGGTCCCA,0.059 ± 0.0037
25,CCGGCGAA,-0.221 ± 0.0083

row,Sequence,PBM E-score of 8-mer
1,AATCCGGG,-0.0392 ± 0.026
2,ACCCTGTC,0.151 ± 0.019
3,AGTAAGTA,-0.0475 ± 0.018
4,CTCTCCCC,-0.129 ± 0.015
5,CGTCACGA,0.14 ± 0.056
6,CGGCTACA,-0.0194 ± 0.0012
7,GCTTTTCA,0.209 ± 0.015
8,AGGCACTC,0.063 ± 0.032
9,AATAGATA,-0.0733 ± 0.032
10,GTCACGTA,0.198 ± 0.037
11,CTCGCGAG,0.284 ± 0.03
12,AATGTTGT,0.148 ± 0.074
13,GGAGCCAC,-0.0195 ± 0.081
14,ACTATTAT,-0.0641 ± 0.024
15,ACTGGTTC,0.0539 ± 0.022
16,CCGCTGCG,0.0202 ± 0.025
17,ATGGTCTC,-0.0511 ± 0.022
18,ATCGAGCA,-0.223 ± 0.036
19,CGCAGGCA,-0.123 ± 0.019
20,ATACGTAA,0.0076 ± 0.052
21,CCAACCAG,-0.16 ± 0.024
22,CAAATGGG,-0.0206 ± 0.047
23,CACGCCGA,0.107 ± 0.042
24,CCGACACG,0.253 ± 0.034
25,ATGGGTGA,0.0601 ± 0.094

row,Sequence,PBM E-score of 8-mer
1,CTCTCTAC,-0.0769 ± 0.028
2,GGGCACCA,-0.0922 ± 0.092
3,CGGTCGCA,0.291 ± 0.025
4,GTTCCACA,0.121 ± 0.13
5,TATACCAA,0.0352 ± 0.047
6,AGTTCTCA,0.323 ± 0.011
7,CGGCGAAG,-0.11 ± 0.091
8,GTATTGAA,-0.137 ± 0.036
9,AAAAAATA,-0.00716 ± 0.07
10,TCTGGCAA,-0.143 ± 0.019
11,GCTATCAA,0.0426 ± 0.018
12,AGGTTATG,0.0667 ± 0.015
13,CGCGCGTA,0.324 ± 0.018
14,AACAAATC,0.216 ± 0.048
15,GTCTACCA,-0.0512 ± 0.025
16,TGTCTCAA,0.00493 ± 0.0047
17,AGCTCGAT,-0.0805 ± 0.035
18,GATCTGGA,-0.0722 ± 0.016
19,GAAGCTAA,0.048 ± 0.042
20,GCTACTCC,-0.00537 ± 0.051
21,CTGTAAAA,-0.00306 ± 0.069
22,ACAGTATA,-0.0861 ± 0.017
23,GGCATCTA,-0.107 ± 0.004
24,GGACGTCA,-0.105 ± 0.021
25,ATTCTTAG,-0.304 ± 0.03

row,Sequence,PBM E-score of 8-mer
1,ACAAACTA,-0.132 ± 0.066
2,ACACCCTG,0.415 ± 0.024
3,AATTCTCG,0.138 ± 0.035
4,CCCCCGTC,-0.167 ± 0.12
5,GGCATGAA,0.00385 ± 0.053
6,AGAACGCC,0.0924 ± 0.02
7,AATGTAAT,-0.102 ± 0.013
8,CCGCGTCC,0.0057 ± 0.044
9,GATTAACC,-0.0771 ± 0.011
10,AATGCAAA,-0.166 ± 0.078
11,ACGGCAAC,0.104 ± 0.051
12,GATTATGC,-0.271 ± 0.039
13,GATATAAA,-0.141 ± 0.06
14,AAGAACCT,-0.239 ± 0.076
15,CCCGAGCG,-0.0873 ± 0.051
16,CGTTGAGA,0.142 ± 0.022
17,ACAACTTG,0.284 ± 0.02
18,AGGCTTTC,0.0343 ± 0.046
19,CCTAATGA,-0.208 ± 0.12
20,ACTATTGG,0.0761 ± 0.0044
21,CTATGTCA,0.164 ± 0.0033
22,ACACCACA,0.364 ± 0.017

# Source: the supplement of paper PMC4166925
